In the supplement of paper PMC4967469:
A lower IC50 marks a more sensitive line; where the fit passes the top or lowest dose, that dose stands as a limit. AUC, from the same fit, is the share of area under the viability curve across the 256-fold dose range: 1 means no effect, lower means more sensitive. For part of these data: The top dose, if marked as inferred, was derived from the fitted curves, not read from the paper. For part of these data: Drugs with an entry number were screened twice under separate entries, and the two screens often disagree.

Assays:
Experiment in all cases: Viability of human cancer cell lines after 72 h of drug (GDSC screen)
[1] = compound: CCOc1nc(NC(=O)Cc2cc(OC)ccc2OC)cc(N)c1C#N [JNK Inhibitor VIII]; conditions: top dose 10 µM; top dose inferred
Method: (§1)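 Human cancer cell lines in 384-well plates, medium with 10% serum, drug for 72 h over a 256-fold dose range (nine 2-fold or five 4-fold steps up to the top dose). Adherent lines were fixed and stained with the nucleic acid dye Syto60, suspension lines read with resazurin; signal relative to control wells, capped at 0 and 100%. One two-parameter sigmoid per drug and line, fitted in a mixed model over all curves with the slope shared within a line.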

[2] = compound: CC1(C)CNc2cc(NC(=O)c3cccnc3NCc3ccncc3)ccc21 [AMG-706]; conditions: top dose 2 µM; top dose inferred
Method: as §1

[3] = compound: COC(=O)[C@H](CCSC)NC(=O)c1ccc(NC[C@@H](N)CS)cc1-c1ccccc1 [FTI-277]; conditions: top dose 1.024 µM; top dose inferred
Method: as §1

[4] = compound: CN1CCN(c2ccc([N+](=O)[O-])c3no[n+]([O-])c23)CC1 [NSC-207895]; conditions: top dose 20 µM; top dose inferred
Method: as §1

[5] = compound: OCCCNc1cc(-c2ccnc(Nc3cccc(Cl)c3)n2)ccn1 [CGP-60474]; conditions: top dose 0.256 µM; top dose inferred
Method: as §1

[6] = compound: COCC[n+]1c2c(n(Cc3cnccn3)c1C)C(=O)c1ccccc1C2=O [YM155]; conditions: top dose 5.12 µM
Method: as §1

[7] = compound: C[C@]1(O)C[C@@H](c2nc(-c3ccc4ccc(-c5ccccc5)nc4c3)c3c(N)nccn32)C1 [OSI-906]; conditions: top dose 2.56 µM; top dose inferred
Method: as §1

[8] = compound: O=C(/C=C/c1cccc(S(=O)(=O)Nc2ccccc2)c1)NO [Belinostat]; conditions: top dose 20 µM; top dose inferred
Method: as §1

[9] = compound: c1ccc2c(CCNc3ccc(Nc4ccncc4)cc3)c[nH]c2c1 [JNJ-26854165]; conditions: top dose 10 µM
Method: as §1

[10] = compound: Cc1ccc(C(=O)N(CCCN)[C@@H](c2nc3cc(Cl)ccc3c(=O)n2Cc2ccccc2)C(C)C)cc1 [SB-715992]; conditions: top dose 0.128 µM; top dose inferred
Method: as §1

[11] = compound: Cc1sc2c(c1C)C(c1ccc(Cl)cc1)=N[C@@H](CC(=O)OC(C)(C)C)c1nnc(C)n1-2 [JQ1]
Method: as §1

[12] = compound: CC1=C2C[C@H]3[C@@H](CC=C4C[C@@H](O)CC[C@@]43C)[C@@H]2CC[C@]12O[C@@H]1C[C@H](C)CN[C@H]1[C@H]2C [Cyclopamine]; conditions: top dose 16 µM; top dose inferred
Method: as §1

[13] = top dose 1 µM, screen: GDSC drug entry 1218, top dose inferred
[14] = top dose 2.56 µM, screen: GDSC drug entry 163

Cell Line | AUC [1] | IC50 [1] | AUC [2] | IC50 [2] | AUC [3] | IC50 [3] | AUC [4] | IC50 [4] | AUC [5] | IC50 [5] | AUC [6] | IC50 [6] | AUC [7] | IC50 [7] | AUC [8] | IC50 [8] | AUC [9] | IC50 [9] | AUC [10] | IC50 [10] | AUC [11, 13] | IC50 [11, 13] | AUC [11, 14] | IC50 [11, 14] | AUC [12] | IC50 [12]
LC-2-ad (lung adenocarcinoma, adherent) | 0.966 | > 10 µM | 0.924 | > 2 µM | 0.953 | > 1.02 µM | 0.941 | > 20 µM | 0.525 | 0.0187 µM | 0.035 | < 0.02 µM | 0.732 | 0.75 µM | 0.199 | 0.156 µM | 0.918 | > 10 µM | 0.654 | 0.0217 µM | 0.983 | > 1 µM | 0.595 | 0.294 µM | 0.981 | > 16 µM
LXF-289 (lung adenocarcinoma, adherent) | 0.965 | > 10 µM | 0.911 | > 2 µM | 0.976 | > 1.02 µM | 0.98 | > 20 µM | 0.67 | 0.0472 µM | 0.039 | < 0.02 µM | 0.938 | > 2.56 µM | 0.459 | 0.969 µM | 0.835 | 6.39 µM | 0.726 | 0.0346 µM | 0.952 | > 1 µM | 0.731 | 0.719 µM | 0.956 | > 16 µM
MDST8 (large intestine, adherent) | 0.987 | > 10 µM | 0.95 | > 2 µM | 0.972 | > 1.02 µM | 0.763 | 7.13 µM | 0.908 | > 0.256 µM |  |  | 0.974 | > 2.56 µM |  |  | 0.813 | 5.36 µM | 0.92 | > 0.128 µM | 0.986 | > 1 µM | 0.973 | > 2.56 µM | 0.987 | > 16 µM
MZ7-mel (melanoma, adherent) | 0.987 | > 10 µM | 0.977 | > 2 µM | 0.975 | > 1.02 µM | 0.896 | > 20 µM | 0.954 | > 0.256 µM | 0.15 | 0.025 µM | 0.98 | > 2.56 µM | 0.259 | 0.249 µM | 0.838 | 7.11 µM | 0.972 | > 0.128 µM | 0.985 | > 1 µM | 0.591 | 0.287 µM | 0.967 | > 16 µM
Mo-T (hairy cell leukaemia, suspension) | 0.987 | > 10 µM | 0.987 | > 2 µM | 0.983 | > 1.02 µM | 0.644 | 3.16 µM | 0.96 | > 0.256 µM | 0.035 | < 0.02 µM | 0.985 | > 2.56 µM | 0.336 | 0.433 µM | 0.913 | > 10 µM | 0.766 | 0.0481 µM | 0.986 | > 1 µM | 0.974 | > 2.56 µM | 0.987 | > 16 µM
NCI-H23 (lung adenocarcinoma, adherent) | 0.959 | > 10 µM | 0.918 | > 2 µM | 0.985 | > 1.02 µM | 0.949 | > 20 µM | 0.823 | 0.149 µM | 0.027 | < 0.02 µM | 0.988 | > 2.56 µM | 0.464 | 0.999 µM | 0.844 | 7.06 µM | 0.98 | > 0.128 µM | 0.974 | > 1 µM | 0.953 | > 2.56 µM | 0.988 | > 16 µM
NCI-H82 (small cell lung carcinoma, suspension) | 0.988 | > 10 µM | 0.981 | > 2 µM | 0.989 | > 1.02 µM | 0.665 | 3.5 µM | 0.845 | 0.17 µM | 0.031 | < 0.02 µM | 0.988 | > 2.56 µM |  |  | 0.925 | > 10 µM | 0.827 | 0.0728 µM | 0.988 | > 1 µM | 0.968 | > 2.56 µM | 0.959 | > 16 µM
NCI-H1666 (lung adenocarcinoma, semi-adherent) |  |  |  |  | 0.986 | > 1.02 µM | 0.987 | > 20 µM | 0.982 | > 0.256 µM | 0.067 | < 0.02 µM | 0.986 | > 2.56 µM | 0.485 | 1.13 µM | 0.951 | > 10 µM | 0.948 | > 0.128 µM | 0.955 | > 1 µM | 0.951 | > 2.56 µM | 0.985 | > 16 µM
NOMO-1 (acute myeloid leukaemia, suspension) | 0.974 | > 10 µM | 0.982 | > 2 µM | 0.982 | > 1.02 µM | 0.806 | 11.9 µM | 0.777 | 0.118 µM | 0.119 | < 0.02 µM | 0.919 | > 2.56 µM | 0.37 | 0.52 µM | 0.845 | 8.77 µM | 0.667 | 0.025 µM |  |  |  |  | 0.968 | > 16 µM
ONS-76 (medulloblastoma, adherent) | 0.952 | > 10 µM | 0.943 | > 2 µM | 0.823 | 0.668 µM | 0.978 | > 20 µM | 0.72 | 0.0713 µM | 0.267 | 0.0654 µM | 0.984 | > 2.56 µM |  |  | 0.9 | > 10 µM | 0.83 | 0.0894 µM | 0.964 | > 1 µM | 0.626 | 0.367 µM | 0.982 | > 16 µM
THP-1 (acute myeloid leukaemia, suspension) | 0.988 | > 10 µM | 0.99 | > 2 µM | 0.981 | > 1.02 µM | 0.9 | > 20 µM | 0.915 | > 0.256 µM | 0.064 | < 0.02 µM | 0.991 | > 2.56 µM |  |  | 0.976 | > 10 µM | 0.832 | 0.0709 µM |  |  |  |  | 0.974 | > 16 µM
